Several values for one entry are separate records, joined by “and”; a condition that tells them apart may be missing. Equal values may be shown once. Among all 230,000 compounds or so, about 3,600 (1.6%) were called active. Inconclusive results, whose numbers are uncertain, are shown with a selection of clear calls. Calls come from the whole dose curve; as a rule, active = well fitted inhibition curve with a large enough effect (not every such curve was filed as active); inconclusive = small, poorly fitted or top-dose-only effect, or another doubt; inactive = no such curve, though single readings can be large or run the other way. Potencies beside an inconclusive call are fits to weak or partial responses and may not hold up.
These molecules were tested against Lysine-specific demethylase 4E (Homo sapiens) (UniProt B2RXH2) (assay: qHTS Assay for Inhibitors of Human Jumonji Domain Containing 2E (JMJD2E)). Conditions: JMJD2E catalytic domain, FDH-coupled NADH fluorescence (FDH is formaldehyde dehydrogenase); series mostly up to 57.1 µM; activity change, negative = inhibition: at the top concentration.
Note: nearly all actives have a fitted effect of over 50% in size.
Potency is the fitted concentration of half-maximal effect; tags give direction and shape of the fitted curve.
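Throughout, for activity change, negative = inhibition: 0% = wells with enzyme and -100% = buffer wells without enzyme.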

Chain of UniProt B2RXH2 (B2RXH2 whole entry, looked up, the tested form may be a part): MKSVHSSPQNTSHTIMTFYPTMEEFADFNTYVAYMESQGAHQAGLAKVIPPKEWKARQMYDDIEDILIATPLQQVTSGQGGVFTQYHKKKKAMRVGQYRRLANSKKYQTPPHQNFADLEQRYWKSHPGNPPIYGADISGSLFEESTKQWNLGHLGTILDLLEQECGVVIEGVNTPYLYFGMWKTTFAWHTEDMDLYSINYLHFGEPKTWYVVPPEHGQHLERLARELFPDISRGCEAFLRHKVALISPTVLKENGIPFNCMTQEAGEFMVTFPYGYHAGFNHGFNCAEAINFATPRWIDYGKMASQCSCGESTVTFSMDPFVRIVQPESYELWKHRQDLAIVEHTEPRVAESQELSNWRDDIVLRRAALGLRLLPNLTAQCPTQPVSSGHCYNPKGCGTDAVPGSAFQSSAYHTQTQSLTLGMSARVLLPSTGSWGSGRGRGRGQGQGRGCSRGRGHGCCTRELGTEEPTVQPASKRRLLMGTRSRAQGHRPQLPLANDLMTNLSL

| SMILES | activity change, negative = inhibition | Potency |
| --- | --- | --- |
| COc1ccc(C2=NCC(=O)N(CC(=O)NCc3ccco3)c3sc4c(c32)CCCC4)cc1 | inactive: 5.07% | – |
| COc1cccc(CCNCc2cccc(C(F)(F)F)c2)c1 | – | inconclusive: 35.5 µM [inhibitor, single point] |
| CCC(=NCCCn1ccnc1)c1c(O)n(Cc2ccccc2)c(=O)[nH]c1=O | – | inconclusive: 35.5 µM [inhibitor, single point] |
| CCC(C)N1CCN(C(=O)Cc2ccccc2)CC1 (configuration not stated) | – | inconclusive: 28.2 µM [inhibitor, single point] |
| CCOC(=O)C1CCN(/C=C2/C(=O)NC(=O)N(c3ccc(OCC)cc3)C2=O)CC1 | inactive: 1.44% | – |
| Cc1cccc(N2C(=O)NC(=O)/C(=C/c3cc4c(cc3[N+](=O)[O-])OCO4)C2=O)c1 | inactive: -6.98% | – |
| Cn1c(O)c(/C=N/NC(=O)c2ccncc2)c(=O)n(C)c1=S | – | active: 31.6 µM |
| COc1ccc(-c2cc(=Nc3cccc(C(=O)O)c3)c3cc(C)ccc3o2)cc1 | – | inconclusive: 31.6 µM [inhibitor, partial curve] |
| CN1C2CCC1CC(OC(c1ccccc1)c1ccc(Cl)cc1)C2 (configuration not stated) | inactive: 5.45% | – |
| CC1O[C@@H](O[C@@H]2C(O)C[C@H](O[C@@H]3C(O)C[C@@H](OC4CC[C@@]5(C)C6CC[C@]7(C)C(C8=CC(=O)OC8)CC[C@@]7(O)C6CC[C@@H]5C4)OC3C)OC2C)CC(O)[C@H]1O (some centres not stated) | inactive: -7.38% | – |
| COc1ccc(CCn2c(O)c(C=Nc3ccc(NC(C)=O)cc3)c(=O)[nH]c2=O)cc1OC | – | inconclusive: 28.2 µM [inhibitor, partial curve] |
| COc1cc(C=C2C(=O)NC(=O)NC2=O)cc(OC)c1OC | – | inconclusive: 25.1 µM [inhibitor, single point] |
| NCC[C@H](O)C(=O)N[C@H]1C[C@@H](N)[C@@H](O[C@H]2O[C@@H](CN)[C@@H](O)[C@@H](O)[C@@H]2N)[C@@H](O[C@H]2O[C@@H](CO)[C@@H](O)[C@@H]2O)[C@@H]1O | inactive: 8.31% [at 25.5 µM] | – |
| CCCCn1c(O)c(C(C)=Nc2cccc(C(=O)O)c2)c(=O)[nH]c1=O | – | inconclusive: 31.6 µM [inhibitor, partial curve] |
| C/C(=N\Nc1ccccc1)c1c(O)[nH]c(=O)[nH]c1=O | inactive: -6.66% | – |
| CC[C@@H]1[C@@H]2C[C@H]3[C@H]4N(C)c5ccccc5[C@@]45C[C@@H]([C@@H]2[C@@H]5O)N3[C@H]1O | inactive: 4.75% [at 25.5 µM] | – |
| CC(=O)c1cccc(OCC(O)CN2CC=C(c3ccccc3)CC2)c1 (configuration not stated) | – | active: 15.8 µM |
| Cc1ncsc1CCCl | – | inconclusive: 28.2 µM [inhibitor, partial curve, poor fit] |
| O=C(c1cccn2c(=O)c3cc(Cl)ccc3nc12)N1CCC2(CC1)OCCO2 | – | inconclusive: 15.8 µM [inhibitor, partial curve] |
| Cc1ccc(-n2c(O)c(C=NCc3ccccn3)c(=O)[nH]c2=S)cc1 | inactive: -2% | – |
| CN1CCc2cc3c(cc2[C@@H]1O)OCO3 | – | inconclusive: 12.6 µM [inhibitor, partial curve] |

| SMILES | activity change, negative = inhibition | Potency |
| --- | --- | --- |
| NC(=O)c1c(NC(=O)c2ccc(S(=O)(=O)N(CCCl)CCCl)cc2)sc2c1CCCCC2 | – | inconclusive: 39.8 µM [inhibitor, single point] |
| C[C@@]12CCC(Cl)C[C@H]1CCC1C2CC[C@]2(C)C(=O)CCC12 (some centres not stated) | inactive: 7.74% | – |
| CCc1ccc(CN2CCN(Cc3cc(Br)ccc3O)CC2)cc1 | – | inconclusive: 28.2 µM [inhibitor, single point] |
| Nc1cncc(C(=O)O)c1 | – | inconclusive: 31.6 µM [inhibitor, partial curve] and inconclusive: 25.1 µM [inhibitor, partial curve] |
| COc1cc2c(cc1O)[C@H]1Cc3ccc(OC)c(O)c3CN1CC2 | – | inconclusive: 12.6 µM [inhibitor, partial curve, poor fit] |
| CCN1C[C@]2(C)CC[C@H](OC)[C@@]34[C@H]1C1(OCO[C@@]15C[C@H](OC)C1C[C@]3(O)C5[C@H]1OC)[C@@H](O)[C@H]24 | inactive: 7.71% | – |
| c1ccc(-c2[nH]c(-c3ccccc3)[n+](CC3CO3)c2-c2ccccc2)cc1 (configuration not stated) | – | inconclusive: 28.2 µM [inhibitor, single point] |
| O=C(CCl)Nc1nccs1 | inactive: -7.69% | – |
| CN1CC=C2C(C#N)=C(N)C(C#N)(C#N)C(c3ccncc3)C2C1 (configuration not stated) | – | inconclusive: 28.2 µM [inhibitor, partial curve] |
| COc1ccc(NC(=O)CN2CC=C(c3ccccc3)CC2)cc1S(=O)(=O)N1CCOCC1 | – | inconclusive: 7.08 µM [inhibitor, single point] |
| Cc1c(C)n(O)c2ccc3nonc3c12 | – | inconclusive: 25.1 µM [inhibitor, single point] |
| CN(C)CCNC(=O)c1cccn(Cc2cc(C(F)(F)F)cc(C(F)(F)F)c2)c1=O | – | inconclusive: 31.6 µM [inhibitor, partial curve] |
| CC[C@H]1CN2CC[C@@H]1C[C@H]2[C@@H](O)c1ccnc2ccc(OC)cc12 | – | inconclusive: 14.1 µM [inhibitor, partial curve, poor fit] |
| O=C(Nc1cccnc1)c1c(O)c2c(n(Cc3ccccc3)c1=O)CCCC2 | – | inconclusive: 39.8 µM [inhibitor, single point] |
| O=c1[nH]c(=O)n(-c2cccc(Cl)c2)c(O)c1/C=N/c1ccccn1 | inactive: -6.26% | – |
| Cc1cc(N2C(=O)C3CCCN3C2c2ccc(Cl)c(Cl)c2)no1 (configuration not stated) | – | inconclusive: 35.5 µM [inhibitor, single point] |
| C[C@@H]1O[C@H](C[N+](C)(C)C)CS1 | inactive: -6.06% | – |
| Cn1c(O)c(/C=N/NC(=O)c2ccncc2)c(=O)[nH]c1=S | – | inconclusive: 25.1 µM [inhibitor, partial curve] |
| O=c1[nH]c2ccccc2c(=O)n1-c1ccc(Cl)cc1Cl | – | inconclusive: 39.8 µM [inhibitor, single point] |
| Cc1nc2c(c(C)nn2-c2ccccc2)c(C)c1CCC(=O)N1CCC2(CC1)OCCO2 | – | inconclusive: 22.4 µM [inhibitor, partial curve] |
| O=c1c2ccccc2nc(/C=C/c2ccc3c(c2)OCO3)n1-c1ccccc1 | – | inconclusive: 35.5 µM [inhibitor, single point] |
